Reference: paper PMC12136788
Some of the results follow.

B1: chr5:123575802:123575904:+|CDS|ENSG00000151292|unk|total|mutant (ssRNA)
RNA: GGGAGUUCUACAGUCCGACGAUCACCUGAGAACUUCUUAACCGGACGACCAGGAAACAAAACCCAGCAAGUUAUUCACAUUACCGAUUUUGGUUUGGCAAAGGAAUAUAUUGAUCCGGAGACAAAGAAACACAUACCAUACAGCAACAGAGGAUUGAGCAUCA
B2: chr4:152882748:152882856:+|CDS|ENSG00000164144|unk|FALSE|unique (ssRNA)
RNA: GGGAGUUCUACAGUCCGACGAUCCAGAAACUGCUGGCUAAAAAUGGAGAGACUCUUCUUGGGGCCAUUAAUUUUUUCAUUGCUAGUGUGAACACUUUGGUGAAUAAAACCAUUGAAGAUACAUUAAUGACUGUGAAACAGUAUCAACAGAGGAUUGAGCAUCA
B3: chr18:55223968:55224079:-|3pUTR|ENSG00000196628|unk|FALSE|unique (ssRNA)
RNA: GGGAGUUCUACAGUCCGACGAUCUAUAAAGCUUUGUUUGUCUAGUGCUCUUUUGCUAUAAAAUAGACUGUAGUACACCCUAGUAGGAAAAAAAAAAAACUAAAUUUAAAAAUAAAAAAUAUAUUUGGCUUAUUUUUCGCAGGACAACAGAGGAUUGAGCAUCA
B4: chr12:106239179:106239280:-|CDS|ENSG00000136026|msi1|FALSE|unique (ssRNA)
RNA: GGGAGUUCUACAGUCCGACGAUCGGACCAAGCCCAGGCCGCCCGUCUGCCUCCUCAGGACUUCCUGGACAGACUUUCUUCUCUAGACAACCUGAAAGCCUCAGUCAGCCAAGUGGAGGCGGACUUGAAAAUGCUCAGGACUGCCAACAGAGGAUUGAGCAUCA
B5: chr10:62095068:62095169:+|3pUTR|ENSG00000150347|msi1|FALSE|unique (ssRNA)
RNA: GGGAGUUCUACAGUCCGACGAUCCCAUUUGCUUCAAUUAAUUAUUUACCUUCCUGUGGAAUAAUAUAUAUAUAUAUAUUUAAUAGAACCAUAGAUAGACUAGUAGAAUUUAGAUUAUAAAUGUGUGAGUGCAGAUUAUCCUGCCAACAGAGGAUUGAGCAUCA
B6: ENSG00000160710:stop:overlap|stop_codon|ENSG00000160710|stop_codon|NA|stop_codon (ssRNA)
RNA: GGGAGUUCUACAGUCCGACGAUCGCUAUGGGAACUGGAUUAGCAAACCCCAGGAGGAAAAGAACUUUUAUCUCUGCCCAGUAUAGUAUGCUCCAGUGACAGAUGGAUUAGGGUGUGUCAUACUAGGGUGUGAGAGAGGUAGGUCAACAGAGGAUUGAGCAUCA
B7: chr20:54218986:54219149:+|CDS|ENSG00000101132|unk|total|mutant (ssRNA)
RNA: GGGAGUUCUACAGUCCGACGAUCAAAUUUGCAAGAAGAAAUUGACGCCUCCGAAUCCAGAGUGGAAUCAAUUCAGCGAGUGUCCGCAGAUUUGAAAGUUCAGUUGUAUGCAAAAUUCGGGAGCAACAUAAACCUUGAAGCUGACAACAGAGGAUUGAGCAUCA
B8: chr3:15667380:15667481:-|3pUTR|ENSG00000206560|msi1|total|mutant (ssRNA)
RNA: GGGAGUUCUACAGUCCGACGAUCUAUACAUAAAAGAUGACAUCUGAAAUAUCUGAUGUGUAUUAUAAUACCAGCUUCUGCUCCCGAACUACUUUGGGUGAAAUGGUGGUAACCGCAAAUGACCUCCUUUAACAAGACACUCAUCAACAGAGGAUUGAGCAUCA
B9: ENSG00000107863:be:win_1601|CDS|ENSG00000107863|bound_else_gene|NA|bound_elsewhere_windowed (ssRNA)
RNA: GGGAGUUCUACAGUCCGACGAUCAGGAUGAUAGACGAGGUAUUUGUGAAAGACCUAGGCAGCAAGAAAUUCAUAAAUCUUUUCGAGGUUCCAAUUUUACUGUGGCUCCAAGCGUUGUUAAUUCUGAUAACAGGCGAAUGAGUGCAACAGAGGAUUGAGCAUCA
B10: chr20:3649766:3649867:+|3pUTR|ENSG00000088812|unk|FALSE|bound_elsewhere (ssRNA)
RNA: GGGAGUUCUACAGUCCGACGAUCAAGUUCAAAGACUAACCUGUAGCAAUCAGACUUUCCAAAAGGGGGUUCUCCAUUUUUUGUAGUUUUGUCUAAAUUUUUAAUGACCAUUUCCUGGAAUCAGUUUAUUAUACUGAAAACUGGCAACAGAGGAUUGAGCAUCA
B11: chr2:65312585:65312700:-|3pUTR|ENSG00000198369|unk|total|mutant (ssRNA)
RNA: GGGAGUUCUACAGUCCGACGAUCUGGACCAGGGCCCGAAUGGGGAUUUCAGGUUUCUAUGAGCCUCCCCAUUACCCCUAAAGCCGAACAUUUUUUAAAUUGUGUUGCCACCACUUCUAAAAAUUCCGCAAUAUCCGAACCGGACAACAGAGGAUUGAGCAUCA
B12: chr5:122065063:122065164:-|3pUTR|ENSG00000113083|msi1|total|mutant (ssRNA)
RNA: GGGAGUUCUACAGUCCGACGAUCUCAACUGGCGGAUACCGCGGUACAUAUGAUCCUCCGCCACCAGGGCACAAGCUUACCAGCCGACAAUACAGACAGAGCUUUUGUUGAGCUGUAACUGAGCUAUGGAACCGCUUCUUUGAUCAACAGAGGAUUGAGCAUCA
B13: ENSG00000198589:be:win_1951|CDS|ENSG00000198589|bound_else_gene|NA|bound_elsewhere_windowed (ssRNA)
RNA: GGGAGUUCUACAGUCCGACGAUCAUGCUUUCUCUACGAGCAUUCUUGUUGAUGUUCAUUAAGCAAUUAGUGAUGAAGGAUUCUGGAGUAAAGGAAGAUGAAUUACAGGCCAUUCUUAAUUACCUACUGACUAUGCAUGAGGAUCAACAGAGGAUUGAGCAUCA
B14: chr17:4669773:4671531:-|three_prime_utr|ENSG00000141456|control|control|control (ssRNA)
RNA: GGGAGUUCUACAGUCCGACGAUCACUUCAUCGAUUGUCCCCCUGAUGAUGAGAAGCCACCACCUCCCACAGAGCCUGACUCCUAGCCAUCUUCUGCACCCCACUCUUUGUUUCCAAUAAAGUUAUGUCCUUAGAUAGCGACUGCAACAGAGGAUUGAGCAUCA

target: MSI1 full-length (mouse, UniProt Q61474 1-362); experiment: nsRBNS (natural sequence RNA bind-n-seq); RBNS binding buffer (assumed for nsRBNS): 25 mM Tris pH 7.5, 150 mM KCl, 3 mM MgCl2, 0.01% Triton X-100, 500 ug/ml BSA, 20 U/ml SUPERase-In, 4 C; UNK is unkempt and MSI1 is Musashi-1; names of the RNAs are library labels; protein concentration not given here; high values mean tight binding
Chain of UniProt Q61474 (Q61474 whole entry): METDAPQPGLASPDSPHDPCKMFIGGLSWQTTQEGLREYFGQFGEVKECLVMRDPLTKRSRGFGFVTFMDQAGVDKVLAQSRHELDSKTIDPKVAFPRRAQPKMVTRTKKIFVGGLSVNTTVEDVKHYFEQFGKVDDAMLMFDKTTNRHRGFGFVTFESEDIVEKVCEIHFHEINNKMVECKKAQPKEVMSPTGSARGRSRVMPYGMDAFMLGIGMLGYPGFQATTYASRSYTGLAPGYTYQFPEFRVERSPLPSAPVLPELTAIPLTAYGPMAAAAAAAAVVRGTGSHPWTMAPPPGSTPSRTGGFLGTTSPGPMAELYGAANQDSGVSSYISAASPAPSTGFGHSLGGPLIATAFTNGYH

With B1 as the binder, how does the binding signal read?
The binding signal was 0.398 enrichment R.

For B2, which binding signal is on record?
The binding signal was 0.284 enrichment R.

How did the binding signal turn out when B3 was run?
Its binding signal is 11.5 enrichment R.

With B4 as the binder, how does the binding signal read?
The binding signal was 0.773 enrichment R.

How did the binding signal turn out when B5 was run?
The binding signal was 21.1 enrichment R.

With B6 as the binder, how does the binding signal read?
Its binding signal is 1.25 enrichment R.

With B7 as the binder, how does the binding signal read?
The binding signal was 0.293 enrichment R.

With B8 as the binder, how does the binding signal read?
The binding signal was 0.285 enrichment R.

B9 was tested. Which binding signal did it give?
Its binding signal is 0.495 enrichment R.

For B10, which binding signal is on record?
Its binding signal is 3.75 enrichment R.

How did the binding signal turn out when B11 was run?
The binding signal was 0.277 enrichment R.

Which binding signal does the source give for B12 here?
Its binding signal is 0.396 enrichment R.

For B13, which binding signal is on record?
The binding signal was 0.339 enrichment R.

How did the binding signal turn out when B14 was run?
Its binding signal is 1.25 enrichment R.
